Experimental data reported in patent US7271245B2, “Methods and compositions for inhibition of metastasis” (The Scripps Research Institute, priority 2004, dated 2007).

Legend:
[1] = target: T1, αvβ1 (Homo sapiens, UniProt P05556+P06756); assay: Flow cytometry, binding to other RGD-recognizing integrins
T1 construct: UCLA-P3 lung adenocarcinoma cells (αv integrins, but no αvβ3); endogenous in cells; host or cells: UCLA-P3 human lung adenocarcinoma cells
Procedure: Flow cytometry. scFv binding to human tumor cells was analyzed by flow cytometry, initially with cloned scFv phage and then with purified scFv protein. Per sample, 2×10^5 tumor cells were blocked with goat serum and incubated either with scFv phage (2-5×10^10) (1 h at RT) followed by mouse anti-M13 mAb (Serotec) (30 min on ice) and goat FITC-anti mouse (Pierce) (30 min on ice), or with purified scFv (1.25 to 40 μg/ml, routinely 10 to 15 μg/ml) (45 min on ice), followed by mouse anti-FLAG mAb M2 (Sigma) (30 min on ice) and goat FITC-anti mouse. Binding/washing buffer was TBS with or without divalent cations (1 mM Ca^2+, 1 mM Mg^2+, 0.2 mM Mn^2+). Alternatively, tumor cells were washed in 10 ml of plasma (prepared freshly from human blood anticoagulated with 50 nM D-Phe-D-Pro-D-arginyl chloromethyl ketone, PPACK, Felding-Habermann et al., J. Biol. Chem. 271: 5892-5900, 1996), resuspended in plasma and then incubated sequentially, without washing, with purified scFv (45 min on ice), followed by anti-FLAG M2 (30 min on ice) and FITC-anti mouse (30 min on ice). All samples were counter stained with propidium iodide (PI) and analyzed on a Becton-Dickinson FACScan, with live gate set to exclude PI positive cells.
To generate therapeutic reagents that specifically react with activated αvβ3, a phage display library of single chain antibody fragments (scFv) was exploited. This library was derived from cancer patient blood lymphocyte cDNA libraries and allowed us to test the hypothesis that the expressed immune repertoire contains antibodies that recognize integrin αvβ3, and distinguish between its activated and non-activated forms. Mao et al., Proc. Natl. Acad. Sci. U.S.A 96: 6953-6958, 1999. A subtractive panning approach was designed based on variants of MDA-MB 435 human breast cancer cells. […] Apparently, these cells are selected during metastasis, as variant cells isolated from lung and bone metastases in immune deficient mice express constitutively activated αvβ3. To establish a cell population that uniformly expresses non-activated αvβ3, MDA-MB 435 parental cells were cloned by limiting dilution, and clones tested for αvβ3 functionality. […] A cell line, MDA-MB 435 Lung-Lung, was established which expressed αvβ3 in a constitutively activated form. This variant stems from a lung metastase of an immune deficient mouse whose mammary fat pad had been injected with parental MDA-MB 435 cells. […] After 5 rounds of subtracting the phage library on Parent Combo cells and panning on Lung-Lung cells, scFv clones were analyzed by flow cytometry for their ability to bind integrin αvβ3 on human tumor cells, and to distinguish between the activated and non-activated forms of the receptor (FIG. 1). […]

[2] = tested on: Integrin αIIβ3 mediated adhesive platelet functions; assay: Platelet adhesion and thrombus formation during blood perfusion; type: cell-based, human; settings: 3 μM scFv
Procedure: Tumor cell arrest during bloodflow. Breast cancer cell arrest during blood flow and interaction with platelets was measured as described. Felding-Habermann, et al., Proc. Natl. Acad. Sci. U.S.A 98: 1853-1858, 2001. Felding-Habermann et al., J. Biol. Chem. 271: 5892-5900, 1996. Briefly, tumor cells were suspended in human blood anticoagulated with 50 nM PPACK and perfused over a collagen I matrix at a venous wall shear rate of 50 s^−1, 2 dynes/cm^2. Adhesive events and cell interactions were visualized and recorded by fluorescence video microscopy and quantified by image acquisition at 30 predefined positions followed by computerized image analysis (MetaMorph, Universal Imaging). Tumor cells were stained with hydroethidine (red fluorescence) (20 μg/ml, 30 min, 37° C.), washed, and mixed with blood containing 10 μM mepacrine (green fluorescence). Blood cells, tumor cells, and platelets acquired green fluorescence and were visualized at 488/515 nm (excitation/emission). Tumor cells were identified by their unique red fluorescence at 543/590 nm. To test inhibition, tumor cells were incubated with 3 μM scFv for 5 min at 37° C., then mixed into blood, scFv added to 3 μM final concentration and perfused immediately.
In the circulation, metastatic tumor cells are intensely exposed to a cancer patient's immune surveillance, encountering potential function blocking antibodies like Bc-12 and Bc-15. […]

T1 sequence (P06756 31-889 limits assumed): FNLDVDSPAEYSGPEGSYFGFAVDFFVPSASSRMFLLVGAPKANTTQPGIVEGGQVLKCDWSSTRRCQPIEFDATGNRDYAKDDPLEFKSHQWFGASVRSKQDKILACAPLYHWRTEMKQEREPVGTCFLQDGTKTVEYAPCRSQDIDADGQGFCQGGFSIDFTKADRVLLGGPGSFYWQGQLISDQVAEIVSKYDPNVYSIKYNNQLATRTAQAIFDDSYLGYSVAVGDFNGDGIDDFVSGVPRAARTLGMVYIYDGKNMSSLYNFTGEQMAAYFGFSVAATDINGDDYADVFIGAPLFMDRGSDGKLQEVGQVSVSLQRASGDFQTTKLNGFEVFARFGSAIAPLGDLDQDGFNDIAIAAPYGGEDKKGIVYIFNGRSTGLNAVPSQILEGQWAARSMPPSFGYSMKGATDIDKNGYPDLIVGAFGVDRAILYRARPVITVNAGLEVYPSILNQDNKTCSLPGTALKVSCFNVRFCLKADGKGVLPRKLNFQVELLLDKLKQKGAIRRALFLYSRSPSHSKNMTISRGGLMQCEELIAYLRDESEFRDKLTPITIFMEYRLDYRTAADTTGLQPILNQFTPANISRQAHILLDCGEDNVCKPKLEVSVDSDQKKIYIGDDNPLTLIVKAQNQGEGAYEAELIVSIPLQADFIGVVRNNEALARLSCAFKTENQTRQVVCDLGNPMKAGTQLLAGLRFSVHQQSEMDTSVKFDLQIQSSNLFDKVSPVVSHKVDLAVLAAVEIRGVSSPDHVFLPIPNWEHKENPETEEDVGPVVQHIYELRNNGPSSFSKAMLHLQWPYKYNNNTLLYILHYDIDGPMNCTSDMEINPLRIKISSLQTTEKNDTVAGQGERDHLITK
T1 sequence (P06756 891-1048 partner limits assumed): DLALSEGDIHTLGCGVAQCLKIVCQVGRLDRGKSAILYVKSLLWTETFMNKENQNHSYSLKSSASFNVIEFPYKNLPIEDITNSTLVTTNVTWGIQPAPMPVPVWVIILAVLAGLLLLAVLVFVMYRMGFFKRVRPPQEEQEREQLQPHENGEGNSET
T1 sequence (P05556 21-798): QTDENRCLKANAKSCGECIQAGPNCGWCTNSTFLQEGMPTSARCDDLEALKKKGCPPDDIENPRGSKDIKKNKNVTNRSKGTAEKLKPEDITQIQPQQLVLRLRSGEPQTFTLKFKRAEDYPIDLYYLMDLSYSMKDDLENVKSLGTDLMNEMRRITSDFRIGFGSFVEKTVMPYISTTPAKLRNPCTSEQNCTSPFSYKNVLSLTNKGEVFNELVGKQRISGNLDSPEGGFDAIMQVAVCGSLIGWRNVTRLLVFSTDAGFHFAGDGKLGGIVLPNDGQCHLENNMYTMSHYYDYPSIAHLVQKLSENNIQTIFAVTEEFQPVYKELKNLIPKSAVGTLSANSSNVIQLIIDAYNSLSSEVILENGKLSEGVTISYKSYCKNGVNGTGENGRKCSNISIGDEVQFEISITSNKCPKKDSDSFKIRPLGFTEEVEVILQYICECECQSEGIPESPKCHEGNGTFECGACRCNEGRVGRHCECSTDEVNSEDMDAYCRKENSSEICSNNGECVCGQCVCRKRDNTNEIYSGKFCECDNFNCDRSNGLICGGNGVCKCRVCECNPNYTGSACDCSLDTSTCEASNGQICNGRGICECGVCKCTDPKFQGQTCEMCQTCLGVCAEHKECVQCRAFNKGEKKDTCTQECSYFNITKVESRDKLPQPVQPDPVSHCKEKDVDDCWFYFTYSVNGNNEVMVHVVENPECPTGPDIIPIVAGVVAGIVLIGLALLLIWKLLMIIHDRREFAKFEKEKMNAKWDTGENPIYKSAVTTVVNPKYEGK

binding to αvβ1 [1]: do not bind
B1: Bc-15: patient derived human scFv antibody against activated αvβ3 with RGD motif in CDR-H3; cDNA ATCC PTA-6304 (protein)
scFv: MAQVQLVQSGAEVKEPGSSVKVSCKASGGTFSSYAIYWVRQAPGQGLEWMGWINPDSGDTNSAQQFQGRVTMTRDTSISTAYMELSRLRSDDTAMYYCARPPRGDGPDYWGQGTLVTVSSGGGGGS[letters of about 100 residues not shown]RGLGGLVDYKDDDDK
adhesive platelet functions [2]: not affected
